# According to PubChem BioAssay AID504332 (National Center for Advancing Translational Sciences (NCATS), 2011):
# Screen size: about 350,000 compounds; about 31,000 (8.9%) were called active. The shares of active, inactive and inconclusive entries below differ from those in the screen. Calls come from the whole dose curve; as a rule, active = well fitted inhibition curve with a large enough effect; inconclusive = small, poorly fitted or top-dose-only effect; inactive = no such curve, though single readings can be large or run the other way. A potency beside an inconclusive call is a rough fit, not a confirmed value.
# Biological target: Histone-lysine N-methyltransferase EHMT2 (Homo sapiens) (UniProt Q96KQ7)
# Assay: qHTS Assay for Inhibitors of Histone Lysine Methyltransferase G9a; note: nearly all actives have a fitted effect of over 75% in size
# Settings: G9a H3K9 monomethylation, AlphaScreen, 2 h; activity, negative = inhibition: at 59 µM (top of the series) unless noted
# Outline: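 Compounds were preincubated with 20 nM G9a for 15 min, after which biotinylated H3K9 peptide (500 nM) and SAM (20 uM) started a 2 h room-temperature reaction. Monomethylated product was quantified by antibody-based AlphaScreen chemiluminescence.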
# % is set by controls: 0 for no effect and ±100 for the full control effect; potency is the fitted concentration of half-maximal effect; tags give direction and shape of the fitted curve.
# Chain of UniProt Q96KQ7 (Q96KQ7 whole entry, looked up): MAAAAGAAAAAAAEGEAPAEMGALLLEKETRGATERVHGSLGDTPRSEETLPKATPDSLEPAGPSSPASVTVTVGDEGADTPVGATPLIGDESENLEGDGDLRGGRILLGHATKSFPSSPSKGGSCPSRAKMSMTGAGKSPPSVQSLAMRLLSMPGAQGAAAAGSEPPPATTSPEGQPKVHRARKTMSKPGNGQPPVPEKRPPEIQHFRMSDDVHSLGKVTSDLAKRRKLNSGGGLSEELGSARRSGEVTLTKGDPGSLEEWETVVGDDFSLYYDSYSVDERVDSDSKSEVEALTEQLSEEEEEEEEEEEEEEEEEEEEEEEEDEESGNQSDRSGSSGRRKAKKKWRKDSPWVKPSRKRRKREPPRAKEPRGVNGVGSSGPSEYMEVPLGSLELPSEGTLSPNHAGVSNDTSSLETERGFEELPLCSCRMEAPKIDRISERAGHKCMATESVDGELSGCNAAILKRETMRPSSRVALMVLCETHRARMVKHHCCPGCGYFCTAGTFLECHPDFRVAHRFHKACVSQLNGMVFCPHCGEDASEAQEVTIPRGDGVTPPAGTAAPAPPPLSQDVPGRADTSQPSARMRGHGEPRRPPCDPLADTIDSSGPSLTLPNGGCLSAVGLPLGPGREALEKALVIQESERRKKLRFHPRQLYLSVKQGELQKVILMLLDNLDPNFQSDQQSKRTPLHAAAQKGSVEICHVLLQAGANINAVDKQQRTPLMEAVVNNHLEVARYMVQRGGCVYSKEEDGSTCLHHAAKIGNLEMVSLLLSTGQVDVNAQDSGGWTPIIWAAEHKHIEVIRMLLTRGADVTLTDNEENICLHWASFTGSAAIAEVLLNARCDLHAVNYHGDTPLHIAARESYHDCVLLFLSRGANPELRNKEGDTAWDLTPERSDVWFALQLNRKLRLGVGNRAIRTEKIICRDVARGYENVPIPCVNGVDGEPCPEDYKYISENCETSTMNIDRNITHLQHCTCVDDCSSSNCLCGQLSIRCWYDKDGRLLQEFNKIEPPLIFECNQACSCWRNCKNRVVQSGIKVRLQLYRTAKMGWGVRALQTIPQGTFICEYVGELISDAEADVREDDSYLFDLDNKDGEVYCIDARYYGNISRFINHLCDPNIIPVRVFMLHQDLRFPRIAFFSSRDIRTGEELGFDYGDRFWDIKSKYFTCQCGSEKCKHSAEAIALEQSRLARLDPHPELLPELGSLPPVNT
Structure (SMILES),"activity, negative = inhibition",Potency
COc1cc(OC)c2c(-c3ccccc3)cc(=O)oc2c1C(CC(=O)N1CCN(c2ccccc2)CC1)c1ccc(N(C)C)cc1 (stereo unspecified),inconclusive: -97.2% [inhibitor],
CCOC(=O)c1c(C)[nH]c(C)c1S(=O)(=O)NCC(=O)Nc1ccc(C)cc1C,inactive: 4.28%,
CC(C)c1nnc(NC(=O)c2cccc(NC(=O)C(F)(F)F)c2)s1,,active: 12.6 µM
COC(=O)C1=COC(C)C2CN3CCc4c([nH]c5ccccc45)C3CC12 (stereo unspecified),,active: 44.7 µM
Cc1csc2nc(COC(=O)CNC(=O)c3ccc(F)cc3)cc(=O)n12,inactive: 18.2%,
O=[N+]([O-])c1ccc(S(=O)(=O)N2CCN=C2SCc2cccnc2)cc1,,"inconclusive: 56.2 µM [inhibitor, partial curve, poor fit]"
Cc1ccc(CNC(=O)/C=C/C(=O)O)cc1,,"inconclusive: 79.4 µM [inhibitor, single point]"
COCCN(C(=O)c1ccc(OC2CCN(S(=O)(=O)N(C)C)CC2)cc1)C(C)C,,"inconclusive: 39.8 µM [inhibitor, single point]"
C[C@]12C=CC(=O)C=C1CC[C@@H]1[C@H]3C[C@@H](O)[C@](O)(C(=O)CO)[C@@]3(C)C[C@H](O)[C@]12F,inactive: 5.92% [at 21.5 µM],
Cc1cccc(N2CCN(C(c3ccccc3)c3nnc(-c4ccccc4F)o3)CC2)c1C (stereo unspecified),inactive: 3.19%,
CCCSS/C(CCO)=C(/C)N(C=O)Cc1cnc(C)nc1N,inconclusive: -68.5% [inhibitor] [at 2.33 µM],
COc1ccccc1NCC(=O)N/N=C(\C)c1cccs1,inactive: 39.2%,
Cn1c(NC(=O)c2ccc(F)cc2)c(-c2ccccn2)c(=O)c2ccccc21,,"inconclusive: 35.5 µM [inhibitor, full curve]"
CCOc1ccccc1NC(=O)C1CCC(CNS(=O)(=O)c2ccc3c(c2)CCCC(=O)N3)CC1 (stereo unspecified),inactive: -0.904%,
COc1cc(/C=C(/C#N)C(=O)c2c(C)[nH]c3ccccc23)ccc1OCC#N,inconclusive: -76.6% [inhibitor],
O=C(NC1(C(=O)NC2CCCCC2)CCCCC1)c1ccccn1,,"inconclusive: 3.16 µM [inhibitor, single point]"
Cn1cccc1/C=N/NC(=O)Cc1cccc2ccccc12,,"inconclusive: 39.8 µM [inhibitor, single point]"
O=C(CNCc1ccncc1)Nc1cc(S(=O)(=O)N2CCCCC2)ccc1Cl,,active: 12.6 µM
Cc1c(Cl)cnc(NC(=O)COC(=O)C(NC(=O)c2ccco2)C(C)C)c1Cl (stereo unspecified),,"inconclusive: 2.82 µM [inhibitor, partial curve, poor fit]"
CCCCCCCCCCCCCC[N+](C)(C)C,inactive: -1.24% [at 12.7 µM],
Cc1ccsc1-c1nc(-c2ccccc2)c(-c2ccccc2)[nH]1,inactive: 42.7% [at 12.7 µM],
O=C(O)CCCN1C(=O)/C(=C/c2cn(-c3ccccc3)nc2-c2cccs2)SC1=S,,"inconclusive: 31.6 µM [inhibitor, partial curve, poor fit]"
Cc1ccc(C)c(OCCC(=O)OCC(=O)Nc2cc(S(=O)(=O)N3CCOCC3)ccc2C)c1,,"inconclusive: 79.4 µM [inhibitor, partial curve, poor fit]"
COn1c(=O)c(-c2ccc(C)cc2)[n+]([O-])c2ccccc21,,"inconclusive: 63.1 µM [inhibitor, partial curve, poor fit]"

Structure (SMILES),"activity, negative = inhibition",Potency
O=C(CC1N=C2c3ccccc3N=C(SCc3ccc(F)cc3)N2C1=O)NC1CCCCC1 (stereo unspecified),inactive: -5.32%,
CCOc1ccc2nc(SCc3ccc(C(=O)OC)o3)[nH]c2c1,inactive: -2.86%,
CCOc1ccc(N(C(=O)c2ccc(Cl)cc2)S(=O)(=O)c2ccc3c(c2)n(C)c(=O)n3C)cc1,inactive: -10.8%,
CCOC(=O)c1c(-c2ccc(C)o2)csc1NC(=O)CN1CCC(C(N)=O)CC1,,active: 44.7 µM
COC(=O)c1ccccc1NC(=O)C1=CC(c2ccc3c(c2)OCO3)=NS(=O)(=O)N1C,,"inconclusive: 39.8 µM [inhibitor, partial curve, poor fit]"
O=C(c1cccc(F)c1)N1CCC2(CCN(Cc3ccccc3)CC2)CC1,inactive: 4.75% [at 12.7 µM],
CC1CCc2c(sc(NC(=O)CSc3nnc(-c4ccccc4)o3)c2C#N)C1 (stereo unspecified),,"inconclusive: 39.8 µM [inhibitor, single point]"
Cn1c(C(=O)NCCN2CCc3ccccc3C2)cc2c(=O)n(C)c3ccccc3c21,,active: 44.7 µM
CCOc1ccccc1NC(=S)N(CCN(C)C)C(C)c1ccncc1 (stereo unspecified),,"inconclusive: 89.1 µM [inhibitor, single point]"
COc1ccc(NC(=S)Nc2cc(C)ccn2)c(OC)c1,,"inconclusive: 7.94 µM [inhibitor, full curve, poor fit]"
Cc1cccc(CSc2nnc(-c3ccco3)n2C)c1,,"inconclusive: 70.8 µM [inhibitor, partial curve]"
CCOC(=O)CNC(=S)N(Cc1ccccc1)Cc1cccnc1,inactive: 2.6%,
Cc1onc(NC(=O)c2ccc(Cl)cc2Cl)c1Br,,active: 17.8 µM
COC(=O)COc1ccc2oc(=O)cc(-c3cc4cccc(OC)c4o3)c2c1,inactive: 8.17% [at 102 µM],
C#CCOCCOCCOCCNc1nc(N2CCN(C(=O)CCCCCCCCCCNC(=O)[C@H]([C@@H](C)CC)n3cc(CCCCN=C(N)N)nn3)CC2)nc(N2CCN(C(=O)CCCCCCCCCCNC(=O)[C@@H]([C@H](C)O)n3cc(C)nn3)CC2)n1,inactive: 11.8% [at 2.33 µM],
O=C(CSc1ccc(-c2cccs2)nn1)Nc1ccccc1,,inactive
Cc1ccc(CN(Cc2ccco2)C(=O)c2ccc(Cl)cc2Cl)cc1,inactive: 3.38%,
COC(=O)C1Cc2c([nH]c3ccccc23)CN1C(C)=O (stereo unspecified),,active: 50.1 µM
COc1cccc(C(=O)/C=C/c2ccc(SC)cc2)c1,inactive: 85.1% [at 102 µM],
Cc1ccc(Sc2c(C(=O)NCc3cccc(F)c3)[nH]c3ccccc23)cc1,,"inconclusive: 39.8 µM [inhibitor, single point]"
Oc1ccc(-c2[nH]ncc2-c2ccc(Cl)cc2)c(O)c1,inactive: -5.98% [at 102 µM],
CCOC(=O)CSc1nnc(C2CCCCC2)n1C,,"inconclusive: 5.62 µM [inhibitor, single point]"
CCn1c(SCC(=O)Nc2ccc3c(c2)OCCO3)nnc1-c1ccccn1,,"inconclusive: 79.4 µM [inhibitor, partial curve, poor fit]"
O=C(CSc1ncccn1)NCCc1ccccc1,inactive: 21.5%,

Structure (SMILES),"activity, negative = inhibition",Potency
CCCC(=O)OCC(=O)Nc1ccc(N=Nc2ccccc2)cc1,,"inconclusive: 39.8 µM [inhibitor, single point]"
CCOC(=O)c1c(NC(=O)Cc2ccccc2)sc2c1CC(C)(C)NC2(C)C,,"inconclusive: 89.1 µM [inhibitor, partial curve, poor fit]"
CCN1CCN(Cc2c(O)ccc3c2O/C(=C\c2ccccc2)C3=O)CC1,,active: 79.4 µM
O=C(CCc1nc(-c2ccccc2)no1)NCC1CCCO1 (stereo unspecified),,"inconclusive: 39.8 µM [inhibitor, single point]"
O=[N+]([O-])c1ccccc1/C=N/N1CCN(c2ccccn2)CC1,,"inconclusive: 25.1 µM [inhibitor, single point]"
CCNc1ccc(C(=O)OCC)cc1NC(=O)c1cccc(N(C)C)c1,,active: 50.1 µM
Cc1oc(-c2ccccc2F)nc1CS(=O)CC(=O)NCc1cccs1 (stereo unspecified),,"inconclusive: 79.4 µM [inhibitor, single point]"
COc1ccc2c(c1)NC(c1ccc(N(C)C)cc1)c1cccn1-2 (stereo unspecified),,active: 79.4 µM
CCc1cccc(C)c1NC(=S)N(Cc1cccnc1)Cc1ccco1,,"inconclusive: 25.1 µM [inhibitor, single point]"
CN1CCN(c2ccc(NC(=O)CSc3nnnn3-c3ccccc3Cl)cc2)CC1,,"inconclusive: 89.1 µM [inhibitor, single point]"
COc1ccc(/C=N/c2c(-c3ccc(OC)cc3)nc3n2CCS3)cc1,,active: 10 µM
c1ccc(-n2ncc3c(NCc4ccco4)ncnc32)cc1,,"inconclusive: 4.47 µM [inhibitor, partial curve, poor fit]"
O=C(c1cnc2sccn2c1=O)N1CCc2ccccc2C1,,"inconclusive: 35.5 µM [inhibitor, single point]"
COc1ccc(CNC(=O)COC(=O)CC2CC3CCC2C3)cc1OC (stereo unspecified),,"inconclusive: 39.8 µM [inhibitor, single point]"
C/C(=N\NC(=S)Nc1cccc(C)c1)c1cccc(N)c1,,"inconclusive: 39.8 µM [inhibitor, single point]"
O=C(Nc1nc2nc(-c3ccccc3)cc(=O)n2[nH]1)c1ccccc1,inconclusive: -93.8% [inhibitor],
O=C(Nc1ccc(-n2cnnn2)cc1)c1cc(S(=O)(=O)N2CCCC2)ccc1Cl,,"inconclusive: 89.1 µM [inhibitor, single point]"
c1nc(NCc2ccc3c(c2)OCO3)c2cc(-c3ccoc3)ccc2n1,inactive: -0.234% [at 12.7 µM],
COCC(C)NC(C(=O)Nc1ccc(Cl)c([N+](=O)[O-])c1)c1ccccc1 (stereo unspecified),,active: 28.2 µM
C/C(N)=C(/C#N)C(=O)CSc1nc2ccccc2c(=O)n1Cc1ccc(C)cc1,inactive: 23.4%,
COC(=O)C1=C(C)N(Cc2ccccc2)C(=NCCCCO)N[C@H]1CCc1ccccc1,,"inconclusive: 89.1 µM [inhibitor, single point]"
O=C(CCN1CCCCCC1)c1ccccc1,,"inconclusive: 25.1 µM [inhibitor, single point]"
COC(=O)c1ccccc1-c1c2ccc(=N)cc-2oc2cc(N)ccc12,inactive: -10.3% [at 12.7 µM],
